We go through one molecule from patent publication US20240400644A1 (ACROIMMUNE GUANGZHOU BIOTECH, published 2024).

The target in assay [1] is T1, human Siglec-3 Fc fusion protein (human, UniProt P20138 18-259, limits assumed).
T1 construct: Recombinant IgG-Fc fusion, coated at 0.2 µg/mL; not shown: IgG-Fc
In words: ELISA: Siglec-Fc coated at 0.2 µg/mL, biotin-labeled AI-071 titrated 2-fold, avidin-HRP. As for the experimental part: (§1) Briefly, 2-fold dilutions of biotin-labeled AI-071 fusion protein were added into 96-well plated coated with indicated Siglec-Fc fusion proteins (all coating at 0.2 μg/mL), the amount of bound AI-071 protein was then detected by adding Avidin-HRP and OPD.
(§2) To evaluate the spectrum of Siglecs that binds to AI-071, recombinant IgG-Fc fusion protein containing one of the human siglec family members (Siglec-1, 2, 3, 4a, 5, 6, 7, 8, 9, 11, 14 and 15) were coated in 96-well plates and their binding to biotin-labeled AI-071 protein was detected in ELISA. The representative ELISA results are shown in FIG. 4B (Siglec-1, 2, 3, 4a, 5 and 6) and FIG. 4C (Siglec-7, 8, 9, 11, 14 and 15).

Assay [2] concerns the target T2, human Siglec-15 Fc fusion protein (human, UniProt Q6ZMC9 20-263, limits assumed).
T2 construct: Recombinant IgG-Fc fusion, coated at 0.2 µg/mL; not shown: IgG-Fc
T2 sequence (looked up): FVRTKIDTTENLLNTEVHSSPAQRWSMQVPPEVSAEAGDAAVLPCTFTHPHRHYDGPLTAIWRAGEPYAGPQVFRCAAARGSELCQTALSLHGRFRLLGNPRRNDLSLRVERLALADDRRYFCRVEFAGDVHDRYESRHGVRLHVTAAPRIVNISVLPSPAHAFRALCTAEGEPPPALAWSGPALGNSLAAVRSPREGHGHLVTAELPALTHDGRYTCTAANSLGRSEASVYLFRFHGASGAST
The assay is described as above. Here is the method: as §1, §2

Assay [3] deals with T3, human Siglec-4A Fc fusion protein (human, UniProt P20916 20-516, limits assumed).
T3 construct: Recombinant IgG-Fc fusion, coated at 0.2 µg/mL; not shown: IgG-Fc
T3 sequence (looked up): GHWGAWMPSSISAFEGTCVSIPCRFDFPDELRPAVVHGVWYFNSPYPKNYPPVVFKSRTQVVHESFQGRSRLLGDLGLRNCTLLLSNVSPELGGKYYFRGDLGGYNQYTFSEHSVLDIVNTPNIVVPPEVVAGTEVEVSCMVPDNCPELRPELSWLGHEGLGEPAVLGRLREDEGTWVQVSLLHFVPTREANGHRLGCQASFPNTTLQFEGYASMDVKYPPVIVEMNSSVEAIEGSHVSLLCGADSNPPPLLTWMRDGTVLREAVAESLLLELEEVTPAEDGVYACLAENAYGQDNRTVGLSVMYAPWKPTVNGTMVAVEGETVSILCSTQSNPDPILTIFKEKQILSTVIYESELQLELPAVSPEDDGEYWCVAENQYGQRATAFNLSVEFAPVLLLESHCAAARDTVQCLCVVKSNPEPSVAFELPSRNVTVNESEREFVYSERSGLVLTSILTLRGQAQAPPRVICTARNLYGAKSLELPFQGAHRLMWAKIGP
The assay is described as above. As for the experimental part:
as §1, §2

Assay [4] addresses T4, human Siglec-11 Fc fusion protein (human, UniProt Q96RL6 28-561, limits assumed).
T4 construct: Recombinant IgG-Fc fusion, coated at 0.2 µg/mL; not shown: IgG-Fc
T4 sequence (looked up): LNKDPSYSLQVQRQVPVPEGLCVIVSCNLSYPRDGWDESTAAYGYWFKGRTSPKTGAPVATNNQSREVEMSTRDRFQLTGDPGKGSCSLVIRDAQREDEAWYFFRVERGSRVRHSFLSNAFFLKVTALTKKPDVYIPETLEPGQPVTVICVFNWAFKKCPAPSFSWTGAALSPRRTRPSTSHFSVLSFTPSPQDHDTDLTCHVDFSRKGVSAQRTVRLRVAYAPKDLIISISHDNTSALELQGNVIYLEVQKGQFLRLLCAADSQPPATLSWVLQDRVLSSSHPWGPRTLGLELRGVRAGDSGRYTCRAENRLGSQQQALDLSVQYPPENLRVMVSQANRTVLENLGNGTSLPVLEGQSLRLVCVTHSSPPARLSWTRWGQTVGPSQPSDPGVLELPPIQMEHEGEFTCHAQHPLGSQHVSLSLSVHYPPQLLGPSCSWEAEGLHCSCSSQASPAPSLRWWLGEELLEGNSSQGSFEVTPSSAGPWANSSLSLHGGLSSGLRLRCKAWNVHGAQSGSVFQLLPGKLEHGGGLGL
The description is as above. Here is the method: as §1, §2

Assay [5] deals with T5, human Siglec-6 Fc fusion protein (human, UniProt O43699 27-347, limits assumed).
T5 construct: Recombinant IgG-Fc fusion, coated at 0.2 µg/mL; not shown: IgG-Fc
T5 sequence (O43699 27-347 limits assumed): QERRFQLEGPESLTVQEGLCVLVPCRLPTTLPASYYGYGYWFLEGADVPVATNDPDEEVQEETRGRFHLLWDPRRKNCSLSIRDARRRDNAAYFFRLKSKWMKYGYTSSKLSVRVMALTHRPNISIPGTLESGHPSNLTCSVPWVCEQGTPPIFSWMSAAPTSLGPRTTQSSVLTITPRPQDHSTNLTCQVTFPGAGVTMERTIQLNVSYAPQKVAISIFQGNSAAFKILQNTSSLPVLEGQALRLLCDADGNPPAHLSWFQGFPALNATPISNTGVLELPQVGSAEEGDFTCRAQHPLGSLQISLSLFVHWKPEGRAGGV
Described as above. As for the experimental part: as §1, §2

For assay [6], the target named is T6, biotinylated human Siglec10 (His- and Avi-tagged) (human, UniProt Q96LC7 17-546, limits assumed, biotinylated (Avi tag)).
T6 construct: Bought, HEK293 cell derived; immobilised on streptavidin biosensors; also called AcroBiosystems SIO-H82E3; not shown: His tag and Avi tag
T6 sequence (looked up): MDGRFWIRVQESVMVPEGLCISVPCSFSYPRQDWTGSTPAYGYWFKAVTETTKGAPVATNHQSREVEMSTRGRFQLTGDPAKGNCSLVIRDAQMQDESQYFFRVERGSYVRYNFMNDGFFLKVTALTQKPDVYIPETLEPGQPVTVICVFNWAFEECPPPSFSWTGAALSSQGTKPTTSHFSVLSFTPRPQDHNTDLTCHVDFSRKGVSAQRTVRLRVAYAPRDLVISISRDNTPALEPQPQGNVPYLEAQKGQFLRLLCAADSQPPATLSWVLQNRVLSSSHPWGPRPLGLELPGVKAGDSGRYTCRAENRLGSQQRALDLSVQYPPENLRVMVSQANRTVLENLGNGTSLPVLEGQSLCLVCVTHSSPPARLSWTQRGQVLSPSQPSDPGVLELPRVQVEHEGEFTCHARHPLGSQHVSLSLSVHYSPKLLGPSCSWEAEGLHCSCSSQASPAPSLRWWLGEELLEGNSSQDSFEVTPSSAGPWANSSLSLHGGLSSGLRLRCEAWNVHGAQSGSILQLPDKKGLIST
Briefly: BLI. As for the experimental part:
A Fortebio based biolayer interferometry assay (BLI) was used to further analyze the binding kinetics of AI-07 fusion protein to human Siglec10. For this propose, streptavidin-coated biosensor tubes (Sartoris Octet SA biosensors, Cat. 18-0009) were incubated with biotinylated human Siglec10 (AcroBiosystems, HEK293 cell derived, His- and Avi-tagged, SIO-H82E3) at 2 μg/mL in binding buffer (1×PBS with 1 mM MgCl2, 3 mM CaCl2) at room temperature for 10 mins. After balanced with binding buffer, analytes of different concentrations of AI-071 or human IgG-Fc control protein were loaded into individual biosensor tube and the binding kinetic curves (association and dis-association) were recorded in Fortebio-BLITZ instrument.

T1 sequence (P20138 18-259 limits assumed): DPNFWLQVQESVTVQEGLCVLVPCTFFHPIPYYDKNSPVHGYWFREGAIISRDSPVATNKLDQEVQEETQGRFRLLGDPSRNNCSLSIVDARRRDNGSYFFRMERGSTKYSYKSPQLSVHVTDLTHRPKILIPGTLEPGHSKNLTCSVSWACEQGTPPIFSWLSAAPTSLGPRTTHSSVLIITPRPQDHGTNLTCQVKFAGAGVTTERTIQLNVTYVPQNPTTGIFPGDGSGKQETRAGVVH

B1: AI-071 fusion protein (Fc fusion)
chain: STSNSGLAPNPTSTSNSGLAPNPTSTSNSGLAPNPTSTSNSGLAPNPTSTSNSGLAPNPT[human IgG1 Fc skipped]
notes: Disulfide-linked homodimer; Used biotin-labeled in the Siglec panel ELISA; also called AI-071 Fc-fusion protein; AI-71
For B1, the binding result in assay [1], in assay [2], in assay [3], in assay [4] and in assay [5] was “binds” in each case. Moreover, the “fold higher Siglec10 binding affinity than control Fc protein” value in assay [6] was over 10 fold.
